{
  "source": "PubChem BioAssay AID540267",
  "about": "(National Center for Advancing Translational Sciences (NCATS), 2011)",
  "note": "Where “and” joins values, the source holds several entries; their conditions need not be identical. Equal entries are not always repeated. Screen size: about 340,000 compounds; about 530 (0.16%) were called active. The inconclusive results got no clear call from the source; some entries with a clear call stand among them for comparison. Rule as the data show it: active = activity change below about -80%; inconclusive = between about -30% and that limit; inactive = weaker than that.",
  "data": [
    {"assay": "Small Molecules that selectively kill Giardia lamblia: qHTS;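 also: parasites exposed to compound for two days anaerobically before the ATP read; % is scaled to controls: 0 for no effect and ±100 for the full control effect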", "conditions": "Giardia lamblia trophozoite viability; at 7.66 µM; hits give low values", "text": "Giardia lamblia is a human pathogen afflicting impoverished nations, and the most common cause of outbreaks of diarrhea in the United States. Giardia has been classified by the CDC as a category B bioterrorism organism. The favored anti giardiasis drugs in the US are metronidazole or tinidazole, compounds that have undesirable side effects. Moreover, increasing resistance to drug regimes and recurrence are a concern. It is thus clear that alternative drug treatments are needed.\nIn a collaboration between the University of Maryland, College Park and the NIH Chemical Genomics Center, a bioluminescence Giardia viability assay based on the trophozoites' ATP content was developed. This assay is suitable for high throughput screening, and miniaturized the assay for compound screening in 1536-well plates. The goal of the project is to screen the Molecular Libraries Small Molecule Repository (MLSMR) for compounds that selectively kill Giardia trophozoites.\nNIH Chemical Genomics Center [NCGC]\nNIH Molecular Libraries Probe Centers Network [MLPCN]\nAssay Submitter (PI): Osnat Herzberg, University of Maryland, College Park, MD.\n1. Dispense 2 ul/well media\n2. Dispense 23 nl/well compounds\n3. Dispense 4 ul/well Giardia trophozoites at a concentration of 100 cells/well\n4. Incubate 48 hrs at 37 deg C anaerobically\n5. Dispense 4 ul/well ATPLite 1-Step Luminescence assay kit\n6. Incubate 15-30 min at room temperature\n7. Read luminescence signal on ViewLux plate reader", "values": [
      {"molecule": "CC(CN1CCCC1)OC(=O)c1ccc(Br)cc1", "note": "(stereo not given)", "activity change": "inconclusive: -32.6% [inhibitor]"},
      {"molecule": "CC1(C)OC(=O)C=C[C@]2(C)[C@H]3CC[C@@]4(C)[C@H](C(=O)O)OC(=O)[C@H]5O[C@]54[C@]3(C)C(=O)C[C@@H]12", "activity change": "inactive: -17.2%"},
      {"molecule": "N=c1c(C(=O)NC2CCCCC2)cc2c(=O)n3ccccc3nc2n1CC1CCCO1", "note": "(stereo not given)", "activity change": "inactive: -8.34%"},
      {"molecule": "O=C(O)c1n[nH]c2c1CC(C1CCCCC1)CC2", "note": "(stereo not given)", "activity change": "inconclusive: -39.5% [inhibitor]"},
      {"molecule": "COc1cccc(Nc2nc(-c3sc(NC(=O)CC(C)C)nc3C)cs2)c1", "activity change": "inconclusive: -37.5% [inhibitor]"},
      {"molecule": "O=C(CNC(=O)OCc1ccccc1)NC1CCCCCCC1", "activity change": "inactive: 6.17%"},
      {"molecule": "CCOc1ccc(N(CC(=O)NCCc2ccc(Cl)cc2)S(=O)(=O)c2c(C)[nH]c(=O)[nH]c2=O)cc1", "activity change": "inactive: 18.1%"},
      {"molecule": "CC1CCCN(c2ncnc3c2cnn3-c2ccc(Cl)cc2)C1", "note": "(stereo not given)", "activity change": "inconclusive: -39.8% [inhibitor]"},
      {"molecule": "COC(=O)c1ccccc1NCCO", "activity change": "inconclusive: -31.9% [inhibitor]"},
      {"molecule": "Cc1cccc(CSc2ncccc2C(=O)O)c1", "activity change": "inactive: -0.742%"},
      {"molecule": "CCCCN(C(=O)c1oc2ccc(OCC)cc2c1C)c1c(N)n(CCCC)c(=O)[nH]c1=O", "activity change": "inactive: -5.44%"},
      {"molecule": "O=C(CN1CCN(Cc2ccccc2)CC1)N/N=C/c1cccs1", "activity change": "inconclusive: -35.2% [inhibitor]"},
      {"molecule": "CC(C)N(Cc1nccn1C)C(=O)c1ccc(OC2CCN(C(=O)C3CC3)CC2)cc1", "activity change": "inconclusive: -36.8% [inhibitor]"},
      {"molecule": "Cc1ccc(N2C(=O)NC(NC(=O)C3CC3)(C(F)(F)F)C2=O)cc1", "note": "(stereo not given)", "activity change": "inactive: -19.1%"},
      {"molecule": "Cc1nc(CNC(=O)CC2C(=O)NCCN2Cc2ccoc2)nc2c1CCCC2", "note": "(stereo not given)", "activity change": "inactive: 2.68%"},
      {"molecule": "O=C(Nc1cccc(-c2ccc(N3CCCCC3)nn2)c1)c1ccco1", "activity change": "inconclusive: -43.5% [inhibitor]"},
      {"molecule": "COc1ccc(N2CCN(Cc3nnnn3C3CCCCC3)CC2)cc1", "activity change": "inactive: 8.8%"},
      {"molecule": "COC(=O)c1ccc(CNC(=O)CNc2cc(C(F)(F)F)ccc2N2CCOCC2)cc1", "activity change": "inconclusive: -41.3% [inhibitor]"},
      {"molecule": "CCCCN(C)C(=O)C1CCN(Cc2cccc(OCc3ccccc3)c2)CC1", "activity change": "inconclusive: -30.3% [inhibitor]"},
      {"molecule": "Cc1cc(C(=O)N/N=C/c2ccc([N+](=O)[O-])s2)n[nH]1", "activity change": "active: -89.7%"},
      {"molecule": "O=C(COC(=O)c1cccnc1Cl)Nc1ccc2c(c1)OCO2", "activity change": "inconclusive: -33.1% [inhibitor]"},
      {"molecule": "Cc1cccc(-n2ncc3c(N(C)C4CCCCC4)ncnc32)c1", "activity change": "inconclusive: -44.7% [inhibitor]"},
      {"molecule": "O=C1CC2C(CCC23OCCO3)c2ccc3ccccc3c21", "note": "(stereo not given)", "activity change": "inconclusive: -38.1% [inhibitor]"},
      {"molecule": "Cc1ccc(C(=O)COc2cc(O)c3c(=O)cc(-c4ccccc4)oc3c2)cc1", "activity change": "inconclusive: -41.1% [inhibitor]"},
      {"molecule": "O=C(Nc1nnc(C23CC4CC(CC(C4)C2)C3)s1)c1ccc(N2C(=O)CCC2=O)cc1", "activity change": "inconclusive: -30.6% [inhibitor]"},
      {"molecule": "O=C(c1ccc([N+](=O)[O-])s1)N1CCc2ccccc21", "activity change": "inconclusive: -47.2% [inhibitor]"},
      {"molecule": "CCN(C(=O)COC(=O)c1cc(-c2ccc(C)o2)nc2ccccc12)C1CCS(=O)(=O)C1", "note": "(stereo not given)", "activity change": "inactive: 8.02%"},
      {"molecule": "Cc1ccc(C)c(-c2nnc(NC(=O)c3ccc([N+](=O)[O-])o3)o2)c1", "activity change": "active: -84.5%"},
      {"molecule": "Cc1nn(CC(=O)NCCc2ccco2)c(=O)c2nn(-c3ccccc3)c(C)c12", "activity change": "inconclusive: -34.4% [inhibitor]"},
      {"molecule": "O=C(N/N=C/c1ccc([N+](=O)[O-])o1)c1cc2c(ccc3ccccc32)o1", "activity change": "inconclusive: -78.6% [inhibitor]"},
      {"molecule": "O=C(Nc1ccccc1Cl)N1CCN(c2ccc3nnc(-c4ccccc4)n3n2)CC1", "activity change": "inconclusive: -30.2% [inhibitor]"},
      {"molecule": "Cc1ccc(-c2nc3[nH]c(=O)cc(NC(=O)c4cccs4)n3n2)cc1", "activity change": "inconclusive: -32% [inhibitor]"},
      {"molecule": "Clc1nc(-c2ccccn2)nc2scc(-c3ccccc3)c12", "activity change": "inconclusive: -50.5% [inhibitor]"},
      {"molecule": "CCN(CC)CCN1C(=O)C(=O)/C(=C(/O)c2ccc(S(=O)(=O)N3CCOCC3)cc2)C1c1ccc(C)cc1", "note": "(stereo not given)", "activity change": "inactive: -22.7%"},
      {"molecule": "O=C(c1ccccc1)c1ccc(C(=O)N2CCCC(C(F)(F)F)C2)cc1", "note": "(stereo not given)", "activity change": "inactive: 3.91%"},
      {"molecule": "CC(C)(C)CC(=O)Nc1ccc(-c2cn3cccnc3n2)cc1", "activity change": "inconclusive: -31.1% [inhibitor]"},
      {"molecule": "O=[N+]([O-])c1ccc(/C=N/Nc2nc(N3CCCCCC3)nc(N3CCCCCC3)n2)o1", "activity change": "inconclusive: -67.2% [inhibitor]"},
      {"molecule": "CCOC(=O)c1csc(-n2nc(C)cc2C(F)(F)F)n1", "activity change": "inconclusive: -42.7% [inhibitor]"},
      {"molecule": "O=c1[nH]c(=O)c2cn[nH]c2[nH]1", "activity change": "inconclusive: -30.8% [inhibitor]"},
      {"molecule": "COc1cc(O)c(C(CCN2CCN(c3ccccc3)CC2)c2ccc3c(c2)OCO3)c(OC)c1", "note": "(stereo not given)", "activity change": "inactive: 9.9% and inactive: -13.6%"},
      {"molecule": "C#CCOC(=O)CN1C(=O)c2cccc3cccc(c23)C1=O", "activity change": "inconclusive: -30.8% [inhibitor]"},
      {"molecule": "COc1ccc(NC(=O)NCCCN2CCN(c3ccccc3F)CC2)cc1", "activity change": "inactive: 5.28%"},
      {"molecule": "CC(C)C(=O)N1CCN(c2ccccc2NC(=O)c2ccc([N+](=O)[O-])o2)CC1", "activity change": "active: -89.5%"},
      {"molecule": "O=C(Nc1ccc([N+](=O)[O-])cc1Cl)c1cc(Br)ccc1O", "activity change": "inconclusive: -36.2% [inhibitor]"},
      {"molecule": "Cc1ccc(OCC(COCc2ccccc2)NC(C)C)cc1", "note": "(stereo not given)", "activity change": "inactive: 17%"},
      {"molecule": "CCOC(=O)c1[nH]c2c(c1-c1ccccc1)C(=O)CC(c1ccccc1)C2", "note": "(stereo not given)", "activity change": "inconclusive: -32.8% [inhibitor]"},
      {"molecule": "COc1cc2c(cc1OC)CN(C(=O)/C=C/c1cccs1)CC2", "activity change": "inactive: 5.95%"},
      {"molecule": "O=C(COc1cccnc1[N+](=O)[O-])N1N=C(c2ccc(Cl)cc2)CC1c1ccco1", "note": "(stereo not given)", "activity change": "inconclusive: -33.6% [inhibitor]"},
      {"molecule": "CCOC(=O)c1cc(CC)sc1NC(=O)c1cc(OC)c(OC)c(OC)c1", "activity change": "inconclusive: -40.5% [inhibitor]"},
      {"molecule": "Cc1ccc(C(C(=O)NCc2ccco2)N(C(=O)CNC(=O)c2cccs2)c2c(C)cccc2C)cc1", "note": "(stereo not given)", "activity change": "inconclusive: -57.1% [inhibitor]"},
      {"molecule": "COc1cc(OC)c2c(-c3cccc(-c4ccc(NC(C)=O)cc4)c3)cc(=O)oc2c1", "activity change": "inactive: -13%"},
      {"molecule": "CC1=NN(C(N)=S)C(=O)C1N=Nc1ccccc1Cl", "note": "(stereo not given)", "activity change": "inconclusive: -32.4% [inhibitor]"},
      {"molecule": "C/C(=N\\NC(=O)c1ccccc1F)c1cccc(NC(=O)c2ccc(C)cc2)c1", "activity change": "inconclusive: -31.9% [inhibitor]"},
      {"molecule": "O=C1c2ccccc2-c2nnc(-c3ccccc3)cc21", "activity change": "inconclusive: -51.2% [inhibitor]"},
      {"molecule": "O=S(=O)(Nc1nc2ccccc2nc1Cl)c1ccccc1C(F)(F)F", "activity change": "inconclusive: -31.4% [inhibitor]"},
      {"molecule": "CC#CC(=O)N1CCC(C(=O)Nc2ccc(Oc3ccccc3)nc2)CC1", "activity change": "inconclusive: -36.1% [inhibitor]"},
      {"molecule": "CCCCNC(=O)Cn1c(SCc2cccc(C)c2)nc2ccncc21", "activity change": "inconclusive: -44.5% [inhibitor]"},
      {"molecule": "Nc1c(Cl)cc(-c2cn(CCC(=O)O)c(-c3ccc(Cl)nc3)n2)cc1Cl", "activity change": "inactive: -4.52%"},
      {"molecule": "C[C@H](NC(=O)C1CCN(S(=O)(=O)c2ccccc2)CC1)C(=O)NCc1cccc(Cl)c1", "activity change": "inconclusive: -39.7% [inhibitor]"},
      {"molecule": "CCCCCC(=O)NC(=S)NNC(=O)c1ccc([N+](=O)[O-])cc1", "activity change": "inconclusive: -42.4% [inhibitor]"},
      {"molecule": "COc1cccc(NC(=O)Nc2ccc(CC(=O)O)cc2)c1", "activity change": "inactive: 2.86%"},
      {"molecule": "COC(=O)c1ccc(CNC(=O)Cn2cnc3c(SC)nc(N)nc32)cc1", "activity change": "inconclusive: -42.1% [inhibitor]"},
      {"molecule": "Cc1ccc(CC(=O)Nc2ncc([N+](=O)[O-])s2)cc1", "activity change": "active: -91.5%"},
      {"molecule": "CC1CCc2c(sc3ncnc(NCc4cccnc4)c23)C1", "note": "(stereo not given)", "activity change": "inconclusive: -31.4% [inhibitor]"},
      {"molecule": "Cc1ccc(S(=O)(=O)n2[nH]c(=O)cc2N)cc1", "activity change": "inconclusive: -35.8% [inhibitor]"},
      {"molecule": "COc1ccc(OC)c(N2C(=O)C(Cl)=C(N3CCOCC3)C2=O)c1", "activity change": "inconclusive: -35.5% [inhibitor]"},
      {"molecule": "Cc1nc(Nc2nc(CSc3ccc(Cl)cc3)cc(=O)[nH]2)nc2ccccc12", "activity change": "inactive: -3.85%"},
      {"molecule": "O=C(Cc1ccccc1)NCC(=O)OCC(=O)c1ccc([N+](=O)[O-])cc1", "activity change": "inconclusive: -30.8% [inhibitor]"},
      {"molecule": "Fc1ccc(-c2c[nH]c(=S)n2Cc2ccccc2)cc1", "activity change": "inconclusive: -31.9% [inhibitor]"},
      {"molecule": "COc1ccc(-c2cc3ccccc3s2)cc1[C@H]1[C@H]2C=CC[C@@H](C)[C@@H]2C(=O)N1Cc1ccccc1", "activity change": "inconclusive: -47.1% [inhibitor]"},
      {"molecule": "O=C(O)c1cccc(NC(=S)NC(NC(=O)c2cccc([N+](=O)[O-])c2)C(Cl)(Cl)Cl)c1", "note": "(stereo not given)", "activity change": "inactive: -15.3%"},
      {"molecule": "O=C(Nc1ccccc1F)Nc1cccc2ccc(O)cc12", "activity change": "inactive: 5.88%"},
      {"molecule": "CCN(C[C@H]1N[C@@](CC)(C(=O)OC)[C@H]2C(=O)N(Cc3ccccc3)C(=O)[C@@H]12)C(=O)Nc1ccc(C(F)(F)F)cc1", "activity change": "inconclusive: -31.3% [inhibitor]"},
      {"molecule": "Cc1cccc(OCC(=O)O/N=C(\\N)c2ccncc2)c1", "activity change": "inactive: -8.08%"},
      {"molecule": "O=[N+]([O-])c1nn(-c2ccc(Cl)cc2)n(O)c1=NCc1cccnc1", "activity change": "inconclusive: -31.3% [inhibitor]"}
    ]}
  ]
}
